In PubChem BioAssay AID504832 (National Center for Advancing Translational Sciences (NCATS), 2011):
Among all 310,000 compounds or so, about 18,000 (5.8%) were called active. The inconclusive results got no clear call from the source; some entries with a clear call stand among them for comparison. Calls come from the whole dose curve; as a rule, active = well fitted inhibition curve with a large enough effect; inconclusive = small, poorly fitted or top-dose-only effect, or another doubt; inactive = no such curve, though single readings can be large or run the other way. Potencies of inconclusive entries are left out as doubtful fits.

Test: Primary qHTS for delayed death inhibitors of the malarial parasite plastid, 48 hour incubation
Conditions: P. falciparum luciferase growth in erythrocytes; series mostly up to 28.7 µM; activity change, negative = inhibition: at the top concentration
Description: The goal of this screen is to discover new antimalarial compounds that act by inhibiting the development of the apicoplast in the malarial parasite Plasmodium falciparum. The biochemical processes that make this organelle essential for erythrocytic stage parasites are not well understood. However, antibiotics such as azithromycin and tetracycline, which target the apicoplast translational machinery, have a potent antimalarial effect.
We have developed a cell-based assay that measures parasite growth based on the expression of an integrated copy of a firefly luciferase reporter. To detect small molecules that cause this "delayed death" phenotype, erythrocytes infected with the luciferase-expressing parasites were incubated with compounds for either one or two generations, corresponding to 48 and 96 hours, respectively. Compounds that inhibit parasite growth in the second generation, but not the first, should be enriched in antimalarials that target the apicoplast. Growth inhibition is detected by a decrease in luciferase activity.
Assay Provider: David Fidock and Eric Ekland, Columbia University
Keywords: NIH Roadmap, MLPCN, MLI, MLSMR, qHTS, NCGC, qHTS, malaria, luciferase, viability
Four microliters of culture medium (RPMI 1640 with 0.5% w/v Albumax (GIBCO), 24 mM sodium bicarbonate and 10 ug/mL gentamycin) were dispensed by a Multi-drop Combi into white solid 1536-well plates (Grenier) and 23 nL compound was added by a pin tool. Four microliters of infected erythrocytes (2% hematocrit, 0.1% parasitemia final concentration) in culture medium were dispensed and the plates incubated for 48 hours at 37 C in 5% CO2. Two microliters of luciferase detection reagent was added and luminescence was detected by a ViewLux (PerkinElmer) reader.
% is set by controls: 0 for no effect and ±100 for the full control effect; potency is the fitted concentration of half-maximal effect; tags give direction and shape of the fitted curve.

Row | Compound | Potency | activity change, negative = inhibition
1 | Cc1cccc(Nc2nc(N)nc(CCl)n2)c1C | inconclusive [inhibitor, partial curve] | 
2 | C/C=C\C=C/C(=O)Nc1cccc(C2=NOC3(C2)C[C@@H](C(N)=O)N(C(=O)/C=C/C=C\C)C3)c1 (stereo partly drawn) |  | inactive: 99.4%
3 | CC(C)NS(=O)(=O)c1ccc(NC(=O)CCc2ccccc2)cc1 |  | inactive: -8.62%
4 | CCOC(=O)c1cc(C(C)(C)C)oc1CN | inconclusive [inhibitor, single point] | 
5 | COc1cc2c(cc1OC)C(c1ccccc1N)=NCC2 | active: 2.94 µM | 
6 | COc1ccc(CC(=O)N2CCC(Nc3nc4ccccc4n3Cc3ccc(F)cc3)CC2)cc1 | active: 4.15 µM | 
7 | COc1ccc(CCNC(=O)CCCOc2cccc(C)c2C)cc1OC | inconclusive [inhibitor, partial curve, poor fit] | 
8 | CSCC(C)N1CCC(CCC(=O)NC2CC2)CC1 (stereo not drawn) |  | inactive: -6.92%
9 | N#Cc1ccc2c(c1)C[C@]1(CCCCN3C(=O)c4ccccc4C3=O)Oc3cc(-c4ccccc4)oc(=O)c3[C@H]2O1 | inconclusive [inhibitor, single point] | 
10 | CCCOC(=O)c1ccc(NC(=O)c2cn(CC)c3nc(C)ccc3c2=O)cc1 | inconclusive [inhibitor, partial curve, poor fit] | 
11 | COC(=O)c1cc(OC)c(OC)cc1NC(=S)N1CCN(c2ccccc2)CC1 | inconclusive [inhibitor, partial curve, poor fit] | 
12 | Cc1c(C(=O)NC(Cc2ccccc2)c2nc3ccccc3[nH]2)cccc1[N+](=O)[O-] (stereo not drawn) | inconclusive [inhibitor, partial curve] | 
13 | CC(=O)N1CCN(C(=O)c2cccc(S(=O)(=O)N3CCN(c4ccccc4)CC3)c2)CC1 | inconclusive [inhibitor, single point] | 
14 | Cc1cc(O)c(C(=O)/C=C/c2ccccc2Br)c(=O)o1 | inconclusive [inhibitor, single point] | 
15 | COc1ccc(C2c3c(ncn(CCN4CCOCC4)c3=N)Oc3ccc4ccccc4c32)cc1 (stereo not drawn) | active: 9.28 µM | 
16 | O=C(CSc1ccccc1C(=O)O)c1ccc(Cl)cc1 |  | inactive: 64%
17 | CCOc1ccc(CN(C)C(=O)c2cc(S(=O)(=O)N3CCCC3)ccc2C)cc1 | active: 11.7 µM | 
18 | COc1ccc(N2CCN(C(=O)CC(NC(N)=O)c3cccc(Oc4ccccc4)c3)CC2)cc1 (stereo not drawn) | inconclusive [inhibitor, partial curve] | 
19 | COCCN(CCOC)C(=O)c1ccc(NS(=O)(=O)c2ccc3c(c2)OCCO3)cc1 |  | inactive: 4.66%
20 | O=C(NCCSCc1c(F)cccc1Cl)c1ccco1 | inconclusive [inhibitor, partial curve, poor fit] | 
21 | O=C(COC(=O)CNC(=O)c1ccc([N+](=O)[O-])o1)Nc1ncc(C(F)(F)F)cc1Cl | inconclusive [inhibitor, single point] | 
22 | CCCN(CCC)C(=O)c1cn(CC)c2ccc(S(=O)(=O)N3CCCCC3)cc2c1=O | inconclusive [inhibitor, single point] | 
23 | Cc1ccc(NC(=O)COC(=O)c2ccc(Cl)cc2)cc1S(=O)(=O)N(C)C | inconclusive [inhibitor, single point] | 

Row | Compound | Potency | activity change, negative = inhibition
24 | COc1cc([C@@H]2c3cc4c(cc3[C@@H](O)[C@H]3COC(=O)[C@H]23)OCO4)cc(OC)c1O[Si](C)(C)C(C)(C)C | active: 7.38 µM | 
25 | Cc1ccc(C(=O)NCc2ccc(N3CCN(C(=O)OC(C)(C)C)CC3)cc2)cc1 |  | inactive: 15.5%
26 | CCOc1cc(N2CCOCC2)c(OCC)cc1NC(=O)c1cc(C)nc2ccccc12 | inconclusive [inhibitor, single point] | 
27 | CN(CCOc1ccc(Cl)cc1)C(=O)C1CCN(C(=O)c2ccc(F)cc2)CC1 | inconclusive [inhibitor, partial curve, poor fit] | 
28 | Cc1cc(CNC(=O)COC(=O)c2ccc(Cl)c(N)c2)cc(C)c1O | inconclusive [inhibitor, single point] | 
29 | Fc1ccc(C2=NNC(=NCc3ccccc3)SC2)cc1F | inconclusive [inhibitor, single point] | 
30 | COc1cccc(OC)c1C(=O)Nc1cccc(NC(=O)c2cccs2)c1 |  | inactive: 7.06%
31 | O=C(Nc1ccccc1Cl)c1cc[n+](Cc2ccc([N+](=O)[O-])cc2)cc1 |  | inactive: -17.6%
32 | O=C(O)C1CC=CCC1C(=O)Nc1cccc(F)c1 (stereo not drawn) |  | inactive: 23.7%
33 | CCN1C(=O)[C@@H]2[C@@H](c3ccc(-c4ccccc4)cc3)N3CCCC[C@@]3(C(=O)OC)[C@@H]2C1=O | active: 9.28 µM | 
34 | COc1cc(C(=O)NCC(=O)OCC(=O)Nc2nnc(-c3ccccc3)o2)cc(OC)c1OC | inconclusive [inhibitor, single point] | 
35 | O=C(COc1ccccc1F)Nc1c2c(nn1-c1ccccc1)CS(=O)(=O)C2 | inconclusive [inhibitor, single point] | 
36 | COc1ccc(CN(C(=O)c2ccco2)c2ccc(C)c(C)c2)cc1 | inconclusive [inhibitor, partial curve, poor fit] | 
37 | COc1ccc(CCNC(=O)Cn2c(-c3nonc3N)nc3ccccc32)cc1OC | inconclusive [inhibitor, single point] | 
38 | CCCCOC(=O)C1[C@H]2C(=O)N(c3ccccc3CC)C[C@]23C=C[C@H]1O3 (stereo partly drawn) | inconclusive [inhibitor, single point] | 
39 | COC1=C(Nc2ccccc2OC)C(=O)c2ccccc2C1=O | active: 2.33 µM | 
40 | Cc1c(NC(=O)OC(C)C)sc(=S)n1C |  | inactive: 8.35%
41 | Cc1oc(-c2ccc(Cl)cc2)nc1CN1CCCC(C(=O)NCCCN2CCOCC2)C1 (stereo not drawn) | inconclusive [inhibitor, single point] | 
42 | CC(C)Cn1c(C(C)C)nc([N+](=O)[O-])c1Sc1ccc(Cl)cn1 | active: 9.28 µM | 
43 | Cc1cc(C)nc(NS(=O)(=O)c2ccc(NC(=O)c3ccc(S(=O)(=O)N(C)C)cc3)cc2)n1 | inconclusive [inhibitor, full curve, poor fit] | 
44 | COc1cc(/C=C(\NC(=O)c2cc(OC)c(OC)c(OC)c2)C(=O)NC(C(=O)O)c2ccccc2)cc(OC)c1OC (stereo not drawn) |  | inactive: 0%
45 | CN(C)S(=O)(=O)c1ccc(N2CCCC2)c(C(=O)N2CCN(S(=O)(=O)c3ccccc3F)CC2)c1 | inconclusive [inhibitor, single point] | 
46 | CCOc1ccc(NC(=S)N2CCN(S(=O)(=O)c3ccc(C)cc3)CC2)cc1 | inconclusive [inhibitor, single point] | 

Row | Compound | Potency | activity change, negative = inhibition
47 | Cc1ccc(Cl)c(OCC(=O)NCC(c2cccs2)N2CCOCC2)c1 (stereo not drawn) | inconclusive [inhibitor, partial curve, poor fit] | 
48 | CNC(=S)N1N=C(c2ccc(OC)cc2)CC1c1ccc(Cl)cc1Cl (stereo not drawn) | active: 11.7 µM | 
49 | COc1ccc(CCNC(=O)c2ccc3c(SCC(=O)O)c4c(nc3c2)CCCC4)cc1OC | inconclusive [inhibitor, full curve, poor fit] | 
50 | CCC1Sc2ccc(S(=O)(=O)CCC(=O)NCc3ccc(C)o3)cc2NC1=O (stereo not drawn) | inconclusive [inhibitor, partial curve, poor fit] | 
51 | O=C(COC(=O)c1ccc(Br)cc1)NCCc1ccccc1 |  | inactive: 1.54%
52 | O=C(COC(=O)c1ccccc1OCc1ccc(Cl)cc1)NC1CC1 |  | inactive: -29%
53 | CCCCn1nc(C(=O)NCC(c2cccs2)N2CCOCC2)c2ccccc2c1=O (stereo not drawn) | active: 9.28 µM | 
54 | Cc1cc(C)cc(-n2ncc3c2CCCC3NC(=O)c2ccccc2N2CCOCC2)c1 (stereo not drawn) | inconclusive [inhibitor, partial curve] | 
55 | CCOc1ccc(NC(=O)N2CCC(C(=O)c3ccc(F)cc3)CC2)cc1 | inconclusive [inhibitor, partial curve, poor fit] | 
56 | CN1CCN(C(=O)C2=C[C@H](c3ccccc3)C[C@H](OCc3ccc(CO)cc3)O2)CC1 | inconclusive [inhibitor, single point] | 
57 | Cc1ccc(CN2C(=O)C(C)Nc3ncnc(N4CCOCC4)c32)cc1 (stereo not drawn) | active: 10.4 µM | 
58 | Fc1ccc(-n2cc(CNCCc3cccnc3)c(-c3ccccc3Cl)n2)cc1 | inconclusive [inhibitor, single point] | 
59 | NCCc1c[nH]c2ccc(OCc3ccccc3)cc12 | inconclusive [inhibitor, single point] | 
60 | O=C(O)c1ccc2c(c1)ncn2C1CCCCC1 | inconclusive [inhibitor, partial curve, poor fit] | 
61 | Cc1ccc(S(=O)(=O)NC(=O)Nc2cc(C)on2)cc1 |  | inactive: 9.79%
62 | Cc1ccc(Nc2ccc(S(=O)(=O)N3CCOCC3)cc2[N+](=O)[O-])cc1C |  | inactive: -15.7%
63 | COc1cc(CNCc2cc(OC)ccc2OC)cc(OC)c1 | inconclusive [inhibitor, full curve, poor fit] | 
64 | CCOc1ccc(CSc2nc(C)cc(COC)c2C#N)cc1OCC | active: 13.1 µM | 
65 | O=C(Nc1ccc2oc(-c3ccccc3)nc2c1)c1ccc2c(c1)OCCO2 |  | inactive: 8.41%
66 | O=C(COc1ccccc1)NCC(c1ccco1)N1CCN(c2ccc(F)cc2)CC1 (stereo not drawn) | inconclusive [inhibitor, partial curve] | 
67 | COc1cc(CN2CCCC(C(=O)c3ccc(C(C)(C)C)cc3)C2)cc(OC)c1O (stereo not drawn) | active: 6.57 µM | 
68 | Cc1ccnc(NC(=O)c2cc(-c3ccc(Cl)s3)nc3ccccc23)c1 | inconclusive [inhibitor, single point] | 
